# Laboratory results taken from publication PMC4336329 (PLoS ONE, 2015).
# The campaign covered roughly 310,000 compounds. About 2,200 (0.71%) showed an effect of 50% or more. The effect is printed as a negative number. The list shows a part of the results.
# Biological target: human ether-à-go-go-related gene (hERG) potassium channel (human, UniProt Q12809)
# Assay: primary screen, population patch clamp on CHO cells stably expressing hERG
# Chain of human ether-à-go-go-related gene (hERG) potassium channel (Q12809 whole entry, looked up): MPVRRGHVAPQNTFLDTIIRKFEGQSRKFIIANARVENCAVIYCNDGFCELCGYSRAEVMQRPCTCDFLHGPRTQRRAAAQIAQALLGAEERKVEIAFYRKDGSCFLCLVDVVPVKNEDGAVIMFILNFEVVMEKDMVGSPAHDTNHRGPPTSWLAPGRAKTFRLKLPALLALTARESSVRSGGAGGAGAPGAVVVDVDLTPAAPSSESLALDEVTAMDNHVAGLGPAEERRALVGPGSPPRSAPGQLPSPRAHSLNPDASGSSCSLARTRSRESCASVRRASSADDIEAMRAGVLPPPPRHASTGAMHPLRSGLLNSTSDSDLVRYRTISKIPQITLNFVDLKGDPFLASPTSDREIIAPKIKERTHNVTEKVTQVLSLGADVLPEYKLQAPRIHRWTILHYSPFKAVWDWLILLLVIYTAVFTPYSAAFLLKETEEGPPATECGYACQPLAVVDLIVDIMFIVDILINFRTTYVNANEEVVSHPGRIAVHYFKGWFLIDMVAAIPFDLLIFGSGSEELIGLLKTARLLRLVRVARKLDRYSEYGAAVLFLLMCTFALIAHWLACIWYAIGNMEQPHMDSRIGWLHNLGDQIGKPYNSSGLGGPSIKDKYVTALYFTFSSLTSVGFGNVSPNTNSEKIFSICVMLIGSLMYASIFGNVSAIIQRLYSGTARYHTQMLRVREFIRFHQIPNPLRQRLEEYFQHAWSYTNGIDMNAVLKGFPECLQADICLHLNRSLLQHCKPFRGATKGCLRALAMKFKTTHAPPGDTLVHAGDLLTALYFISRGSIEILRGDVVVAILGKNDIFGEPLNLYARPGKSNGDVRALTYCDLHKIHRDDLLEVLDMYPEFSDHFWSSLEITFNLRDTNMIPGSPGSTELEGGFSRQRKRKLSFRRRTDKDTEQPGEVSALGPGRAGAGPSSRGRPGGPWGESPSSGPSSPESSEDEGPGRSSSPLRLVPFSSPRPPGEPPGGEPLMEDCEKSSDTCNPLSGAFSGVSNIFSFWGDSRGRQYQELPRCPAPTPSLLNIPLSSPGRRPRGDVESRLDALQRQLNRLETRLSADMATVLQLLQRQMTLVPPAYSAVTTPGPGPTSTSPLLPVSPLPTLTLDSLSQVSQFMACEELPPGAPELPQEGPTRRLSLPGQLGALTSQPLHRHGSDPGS
row,Structure (SMILES),"hERG current change (%, negative = inhibition) at 1uM [%]"
1,Cc1cc(NC(=O)Cn2nc(-c3ccccc3F)ccc2=O)ccc1-n1cnnn1,7.13
2,CCC(c1nnnn1CCOC)N1CCN(Cc2ccccc2)CC1.Cl (stereo not drawn),7.29
3,Cc1ccc(C(=O)NC(C)(COc2nonc2C)COc2nonc2C)cc1,-1.74
4,COc1ccc(N2C(=S)NC3c4cc(Cl)ccc4OC2(C)C3C(=O)N(C)C)cc1 (stereo not drawn),17.5
5,CC1CC(CN)CC(CO)C1 (stereo not drawn),17.4
6,Cc1nc(SCC(=O)Nc2nc3ccccc3s2)n[nH]1,8.45
7,CN(C)CCCN(C(=O)c1ccc(S(=O)(=O)N2CCCCCC2)cc1)c1nc2ccc(F)cc2s1.Cl,9.62
8,CC1CC(C)CN(S(=O)(=O)c2ccc(C(=O)NCc3ccc4c(c3)OCO4)cc2)C1 (stereo not drawn),16.7
9,O=C(CSCc1ccc(Br)cc1)N=Nc1c(O)[nH]c2ccccc12,13.7
10,CCOc1ccc(/C=C2\SC(=S)N(CCC(=O)N(CCO)c3ccccc3)C2=O)cc1,12.5
11,O=C(O)COc1ccc2c3c(c(=O)oc2c1)CCC3,10.8
12,CCOC(=O)CSc1nc(C)c2ccccc2n1,17.2
13,CCC(=O)N1CCN(c2ccc(Cl)cc2NC(=O)Cc2ccc(Cl)cc2)CC1,1.41
14,Cc1cc(Br)ccc1NC(=O)CN(C)C(=O)CN1C(=O)NC(C)(C2CC2)C1=O (stereo not drawn),8.88
15,Cc1ccccc1N=C(N)Nc1ccccc1C,11.2
16,CCCOC(=O)CSc1nc(N)c(C#N)c(-c2ccco2)c1C#N,12
17,Cc1c(C(=O)N(Cc2nnc(-c3ccccc3Cl)o2)C2CC2)oc2ccccc12,0.524
18,CCOC(=O)N1CCN(CC(=O)c2c(C)[nH]c3ccccc23)CC1,2.68
19,COc1ccccc1N/C(N)=N/c1nc(C(F)(F)F)cc(=O)[nH]1,13
20,Cc1ccc(NC(=O)N2CCN(S(=O)(=O)c3ccccc3)CC2)cc1,6.95
21,Cc1cccc(CN2CCC(C(=O)Nc3cccc(-c4cccc(F)c4)c3)CC2)n1,-66.1
22,CN(Cc1ccccc1)Cc1c[nH]c2ccccc12,3.28

row,Structure (SMILES),"hERG current change (%, negative = inhibition) at 1uM [%]"
1,CCCc1cc(=O)oc2cc(OCC(=O)NCCc3ccc(S(N)(=O)=O)cc3)ccc12,8.8
2,CC(C)(C)n1c(=O)[nH]c2c(c1=O)CCC2,4.09
3,Nc1ccc(O)c2c1C(=O)c1ccccc1C2=O,11.5
4,Cn1c(SCC(=O)N/N=C/C=C\c2ccccc2[N+](=O)[O-])nc2ccccc21,4.09
5,CC(C)n1nc(C(=O)Oc2cccc(Cl)c2Cl)c2ccccc2c1=O,3.41
6,CCOC(=O)Cc1c(C)nc2c(-c3ccccc3)c[nH]n2c1=O,14.1
7,COc1ccc(S(=O)(=O)NCCc2c(C)nn(C)c2Oc2ccccc2)cc1,11.8
8,C/C=N/NC(=O)CCNC(=O)c1ccccc1,13.4
9,CCCN(C(=O)c1ccccc1Cc1ccccc1)C1CCS(=O)(=O)C1 (stereo not drawn),5.7
10,CC(C)CCSc1ncnc2c1oc1nc3c(cc12)COC(C)(C)C3,4.07
11,Nc1cccnc1S(=O)(=O)c1cccc(C(F)(F)F)c1,17.2
12,Cc1nnc(SCC(=O)NC2CCCCC2)n1C1CCCCC1,10.8
13,Cc1[nH]c2ccc(C(=O)NC3CCC(C)CC3)cc2c1C (stereo not drawn),3.54
14,Cn1ccc(C(=O)NC(=S)Nc2ccc([N+](=O)[O-])cc2O)n1,5.28
15,Cc1ccc(S(=O)(=O)NC2=NCN(Cc3cccnc3)CN2)cc1,19.2
16,Cc1ccc[n+](-c2[nH]c(=O)sc2/C=N/N=C(\[O-])c2cccnc2)c1,9.13
17,CCOc1ccccc1-n1c(SCC(=O)Nc2ccccc2C(=O)O)nc2ccccc2c1=O,11.8
18,COC(=O)c1ccc(NC(=O)CCS(=O)(=O)c2ccc(C)cc2)cc1,13.7
19,CC(C)Sc1nc2c(c(=O)n(C)c(=O)n2C)n1C,15.2
20,CCNc1nc(NCC)n2c(SCC(=O)Nc3ccccc3Cl)nnc2n1,12
21,O=C(CN1C(=O)c2ccccc2S1(=O)=O)NCCSCc1c(F)cccc1Cl,7.61
22,CCOc1ncccc1C(=O)OCc1nnc(-c2ccccc2)o1,6.84

row,Structure (SMILES),"hERG current change (%, negative = inhibition) at 1uM [%]"
1,CCOC(=O)c1cc(C#N)c(N2CCOCC2)nc1-c1ccccc1,-4.3
2,Cc1cccc(C)c1OCC(=O)N=Nc1c(O)[nH]c2ccc(Br)cc12,3.68
3,Cc1[nH]n(-c2ccc([N+](=O)[O-])cc2)c(=O)c1C=NCCN1CCN(C(=O)c2ccccc2F)CC1,-34.2
4,Cc1ccc(NS(=O)(=O)c2cccc(C(=O)O)c2)cc1S(=O)(=O)N1CCOCC1,8.27
5,CC1CCCN(S(=O)(=O)c2ccc(NC(=O)c3cccc(-n4cnnn4)c3)cc2)C1 (stereo not drawn),-0.63
6,CCc1ccc2oc(C(=O)NCc3ccncc3)c(C)c2c1,-1.42
7,CC(C)(C)c1ccc(C(=O)Nc2ccccc2Cl)cc1,17.7
8,COc1ccc(-c2c(C(C)=O)c(C)nc3sc4c(=O)n(-c5ccc(C)cc5)nnc4c23)cc1,10.6
9,Cc1ccc2c(c1)N(CC(=O)OCC(=O)NCc1ccccc1)C(=O)CO2,6.94
10,CCOC(=O)C1=C(Nc2ccc(OC)cc2)OCC1=O,12.5
11,O=C(Cc1cccs1)NC1(C(=O)NC2CCCC2)CCCCC1,-9.97
12,CN(C)CCn1c2c(c(SCC(=O)NCc3ccccc3)nc1=O)CCC2,4.19
13,Cc1nc2cc(NC(=O)N3c4ccccc4CC3C)ccc2n1C (stereo not drawn),5.76
14,CS(=O)(=O)N1CCN(C(=O)c2c(F)cccc2F)CC1,3.57
15,CC1CCN(C(=O)/C(=C/c2ccccc2Cl)c2ccccc2)CC1,2.81
16,Cc1c(Cc2ccc3c(c2)OCO3)sc(NC(=O)c2ccc3ccccc3c2)c1C(N)=O,-3.82
17,COc1ccc(C)cc1NC(=O)CCN1CCN(c2ccccc2F)CC1.Cl,3.59
18,O=C(Nc1ccccc1)Nc1scc2c1c(=O)oc1ccccc12,1.74
19,N/C(=N\OC(=O)c1ccc(OCC(F)(F)F)nc1)c1ccc(Cl)cc1,15.2
20,CN(C)S(=O)(=O)NCC1CCCN(Cc2cc3ccccc3s2)C1 (stereo not drawn),7.45
21,COc1ccccc1CNC(=O)CCC(=O)Nc1nnc(C(C)C)s1,6.47
22,Cc1nc(-c2ccccc2)sc1-c1nc(-c2ccccc2)ncc1S(=O)(=O)c1ccccc1,5.21

row,Structure (SMILES),"hERG current change (%, negative = inhibition) at 1uM [%]"
1,COc1cc(C(=O)Nc2ccc(N(C)C)cc2)cc(OC)c1OC,16.8
2,N#CC(c1ccccn1)(c1ncc(C(F)(F)F)cc1Cl)N1CCOCC1 (stereo not drawn),9.65
3,CN(C)c1ccc2c3c(cccc13)C(=O)N(c1ccccc1)C2=O,13.8
4,CC(=O)Nc1cccc(C(=O)/C=C/c2ccc(/C=C/C(=O)c3cccc(NC(C)=O)c3)cc2)c1,-0.717
5,N#CCc1ccccc1C(=O)OCC(=O)N(Cc1ccccc1)Cc1ccccc1,2.5
6,CC(=O)Oc1ccc([N+](=O)[O-])cc1N1C(=O)c2ccccc2C1=O,6.82
7,COc1cccc(C(=O)O/N=C(\N)Cc2ccc(Cl)cc2)c1,2.67
8,COc1ccc(S(=O)(=O)NCc2cccnc2)cc1Br,11.1
9,N/C(=N\OC(=O)c1ccccc1Cl)c1ccccn1,14.1
10,O=C(COc1ncnc2ccccc12)NC1CCS(=O)(=O)C1 (stereo not drawn),13
11,CC(C)CCSc1cc(NCCO)c([N+](=O)[O-])c2nonc12,7.95
12,C=CCN(C(=O)CNC(=O)c1ccco1)C(C(=O)NC1CCCC1)c1cccs1 (stereo not drawn),11.2
13,CCn1cc(C(=O)N2CCN(c3ccccn3)CC2)c(=O)c2cc(S(=O)(=O)N(C)C3CCCCC3)ccc21,-8.11
14,CCC(=O)c1ccc(OCC(=O)OCC(=O)c2c(N)n(C)c(=O)n(C)c2=O)cc1,8.97
15,Cc1cc(C)n(-c2ccc(C(=O)OCC(=O)NC(c3ccccc3)c3ccccc3)cc2)n1,24.9
16,CCOc1ccc(CN2CCCC(CNC(=O)c3ccc(F)cc3)C2)cc1CO (stereo not drawn),-50.5
17,CC[C@@]12C(=O)N(c3ccc(C)cc3)C(=O)N1[C@H](c1cccc(C)c1)[C@@H]1C(=O)N(Cc3ccccc3)C(=O)[C@@H]12,12.2
18,COc1ccccc1-c1nn(Cc2ccccc2)cc1C(=O)N1CCN(c2ncccn2)CC1,7.89
19,CN(C)CC(C)(C)NS(=O)(=O)c1ccc(Cl)cc1,3.84
20,O=C(CCn1c(=O)oc2cc(Cl)ccc21)Nc1ccc(N2CCOCC2)cc1,14.6
21,C=CCSc1nnc(NC(=O)c2c(CC)noc2C)s1,8.92
